In patent US4772586A, “Novel derivatives of arginine vasopressin antagonists” (Medical College of Ohio, priority 1986, dated 1988):
Not every detail of the peptide structures is certain; ends, links or a residue may be inferred. *1 amine or outer side, *2 acyl side, *3 side chain or, on linkers, in order; H or OH if unused. Where a SMILES comes first, the peptide text is derived from it. Bridges are numbered along the chain shown (N, C = ends). [ ]: non-standard residue; d: D form. Ethylenediamine = C(CN[*:2])N[*:1]; X1 = O=C(CC1(S[*:2])CCCCC1)[*:1]

Legend:
[1] = system: antidiuretic response to arginine vasopressin; assay: Antagonism of the antidiuretic response to arginine vasopressin (Anti-ADH); type: in vivo, rats; conditions: for Anti-ADH ED: Table 1, effective dose reducing response to 2x units of agonist injected 20 min after antagonist to response with 1x units
Procedure, shortened: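 Compounds were given intravenously to ethanol-anesthetized, water-loaded rats, followed by arginine vasopressin challenge. Effective dose (nmol/kg) is the antagonist dose that reduces the response to 2x units of agonist, given 20 min later, to the response to 1x units. pA2 is the negative log of effective dose divided by an estimated 67 ml/kg distribution volume.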

[2] = system: ethanol-anesthesized water-loaded rats; assay: Activity as antidiuretic agonists, intravenous injection; type: in vivo; conditions: Table 1; antidiuretic agonism, i.v.; ^+ = weak partial agonistic activity not clearly related to dose
Procedure: Activity as antidiuretic agonists was determined by intravenous injection of the compounds being evaluated in ethanol-anesthesized water-loaded rats in accordance with Sawyer, Endocrinology, vol. 63 (1958) at 694. Antagonism of the antidiuretic response to subsequent injections of arginine vasopressin was tested by the method of Sawyer et al., Science, vol. 212 (1981) at 49.

[3] = system: vasopressor response to arginine vasopressin; assay: Antagonism to the vasopressor response (Anti-VP); type: in vivo; conditions: for Anti-VP ED: Table 1, effective dose
Procedure, shortened: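 In vivo antagonism of arginine vasopressin pressor response per Dyckes et al. Effective dose (nmol/kg) is the antagonist dose making the response to 2x agonist units, injected 20 min later, equal that to 1x units. pA2 is the negative log of effective dose divided by 67 ml/kg distribution volume.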

[4] = system: antidiuretic responses to AVP; assay: Oral administration: inhibition of antidiuretic responses to AVP; type: in vivo, rats

Structure (SMILES) | Anti-ADH ED [1] | Agonistic Activities ADH [2] | Anti-VP ED [3] | Anti-ADH Potency ED ([1]; Table 4, evaluated as in Example 8, ^+ = mixed) | effective intravenous dose ([1]; intravenous, anti-ADH) | Anti-VP Potency ED ([3]; Table 4, evaluated as in Example 8) | oral activity ([4]; administered to rats) | rats with clear inhibition of antidiuretic responses to AVP ([4]; oral via stomach tube, 10-15 micrograms per rat, AVP i.v. 30 min later, ethanol-anesthesized rats) | Responses were reduced by ([4]; oral, 10-15 micrograms per rat, antidiuretic responses to AVP) | "effective" oral dosage ([4]; oral, rats)
CCOc1ccc(C[C@H]2NC(=O)CC3(CCCCC3)SSC[C@@H](C(=O)N3CCC[C@H]3C(=O)N[C@@H](CCCNC(=N)N)C(=O)NCC(N)=O)NC(=O)[C@H](CC(N)=O)NC(=O)[C@H](C(C)C)NC(=O)[C@H](Cc3ccccc3)NC2=O)cc1 [d(CH2)5 [D-Tyr(Et)^2]VAVP, [1-(beta-mercapto-beta,beta-cyclopentamethylenepropionic acid), 2-D-(O-ethyl)tyrosine, 4-valine]-arginine vasopressin, reference compound] ([dY](Et)FVNCPRG-NH2; linker N-5 via X1) | 1.1 ± 0.2 nmol/kg | weak | 0.45 ± 0.11 nmol/kg |  |  |  |  |  |  | 
COc1ccc(C[C@@H]2NC(=O)CC3(CCCCC3)SSC[C@@H](C(=O)N3CCC[C@H]3C(=O)N[C@@H](CCCNC(=N)N)C(=O)O)NC(=O)[C@H](CC(N)=O)NC(=O)[C@H](CCC(N)=O)NC(=O)[C@H](Cc3ccccc3)NC2=O)cc1 [desGly(NH2)^9 d(CH2)5 [Tyr(Me)^2]AVP] (Y(Me)FQNCPR-OH; linker N-5 via X1) | ~ 280 nmoles/kg | ~ 0.0005 units/mg | 0.23 ± 0.02 nmol/kg |  |  |  |  |  |  | 
CCOc1ccc(C[C@@H]2NC(=O)CC3(CCCCC3)SSC[C@@H](C(=O)N3CCC[C@H]3C(=O)N[C@@H](CCCNC(=N)N)C(=O)NCC(N)=O)NC(=O)[C@H](CC(N)=O)NC(=O)[C@H](C(C)C)NC(=O)[C@H](Cc3ccccc3)NC2=O)cc1 [d(CH2)5 [Tyr(Et)]^2 VAVP, [1-(beta-mercapto-beta,beta-cyclopentamethylenepropionic acid), 2-(O-ethyl)tyrosine, 4-valine]-arginine vasopressin, reference compound] (Y(Et)FVNCPRG-NH2; linker N-5 via X1) | 1.9 ± 0.2 nmol/kg | ~ 0.03 units/mg | 0.49 ± 0.11 nmol/kg |  |  |  |  |  |  | 
CC[C@H](C)[C@@H]1NC(=O)[C@H](Cc2ccccc2)NC(=O)[C@@H](Cc2ccccc2)NC(=O)CC2(CCCCC2)SSC[C@@H](C(=O)N2CCC[C@H]2C(=O)N[C@@H](CCCNC(=N)N)C(=O)NCCN)NC(=O)[C@H](CC(N)=O)NC1=O [[1-(beta-mercapto-beta,beta-cyclopentamethylenepropionic acid), 2-D-phenylalanine, 4-isoleucine, 8-arginine-N-(beta-amino)ethylamide, 9-desglycinamide] vasopressin] ([dF]FINCPR-Ethylenediamine; linker N-5 via X1) |  |  |  | 0.55 ± 0.08 nanomoles per kilogram | 0.55 nmol/kg | 0.88 ± 0.10 nanomoles per kilogram | orally active | eight out of 12 | 35±10% | about 75 nmoles/kg
CC(C)[C@@H]1NC(=O)[C@H](Cc2ccccc2)NC(=O)[C@@H](Cc2ccccc2)NC(=O)CC2(CCCCC2)SSC[C@@H](C(=O)N2CCC[C@H]2C(=O)N[C@@H](CCCNC(=N)N)C(=O)NCC(N)=O)NC(=O)[C@H](CC(N)=O)NC1=O [d(CH2) 5 [D-Phe^2]VAVP, [1-(beta-mercapto-beta,beta-cyclopentamethylenepropionic acid), 2-D-phenylalanine, 4-valine]-arginine vasopressin, reference compound] ([dF]FVNCPRG-NH2; linker N-5 via X1) | 0.67 ± 0.13 nmol/kg | weak | 0.58 ± 0.04 nmol/kg |  |  |  |  |  |  | 
COc1ccc(C[C@@H]2NC(=O)CC3(CCCCC3)SSC[C@@H](C(=O)N3CCC[C@H]3C(=O)N[C@@H](CCCNC(=N)N)C(N)=O)NC(=O)[C@H](CC(N)=O)NC(=O)[C@H](CCC(N)=O)NC(=O)[C@H](Cc3ccccc3)NC2=O)cc1 [desGly^9 d(CH2)5 [Tyr(Me)^2]AVP, [1-(beta-mercapto-beta,beta-cyclopentamethylenepropionic acid), 2-(O-methyl)tyrosine, 9-desglycine]-arginine vasopressin] (Y(Me)FQNCPR-NH2; linker N-5 via X1) | ~ 54 nmoles/kg | ~ 0.01 units/mg | 0.27 ± 0.06 nmol/kg |  |  |  |  |  |  | 
